In paper PMC6451091:
The list shows a part of the results. For part of these data: At the low end of the ranking the order means little. For part of these data: The protein was read in a cell extract, so binding may be indirect.

biological target: PU.1 (IVT) (UniProt P17947); assay: protein-binding microarray (PBM); settings: 20 mM HEPES pH 7.9, 100 mM NaCl, 1 mM DTT, 0.2 mg/mL BSA, 0.02% Triton X-100, 2% milk, 0.4 mg/mL salmon testes DNA; 1 h; temperature not stated; high values mean tight binding; double strand, one strand shown; sequences stand for … in GCCTAGCAC…GTGCTAGGTCTTGATTCGCTTGACGCTGCTG

| Sequence | binding signal |
| --- | --- |
| AAATAGAGGAAATGCTTCAC | 3.83 z-score |
| AGCAACAGGAAGTGCACGAC | 4.4 z-score |
| GGAAAGAGGAAGTGTATGGT | 8.05 z-score |
| GGGATGAGGAAGTCAACTTT | 4.92 z-score |
| CCTTAGGGGAAGTGTGAAGT | 3.49 z-score |
| TGAAAGAGGAACTCAGTCAT | 5.4 z-score |
| CAAGAGGGGAAGTGCCTTGC | 3.97 z-score |
| CCACAGAGGAAATGAGTTCT | 1.33 z-score |
| CGATAGGGGAAGTGCTAAAC | 5.08 z-score |
| GATAAGAGGATGTCCTCTGT | 1.32 z-score |
| TAAATGAGGAAATGACCACG | 4.43 z-score |
| TAAGGAGGGAAGTGAGACTG | 2.08 z-score |
| GTGCAAAGGAAGTGCCCACA | 1.07 z-score |
| CAAAAGCAGAAGTGGCCAGG | 5.04 z-score |
| GGTGTGGGGAAGTACTGTGT | 3.69 z-score |
| GATAAAAGGAAGTCCTCTGT | 3.29 z-score |
| AGAAAGAGGAAGTCGAGGTG | 7.74 z-score |
| GAGGAGGGGAACTGAGAGCA | 1.39 z-score |
| TGAAAGGGGAAGTGGGTGCC | 6.37 z-score |
| GACAGGAGGAAGTGGAACTC | 4.7 z-score |

| Sequence | binding signal |
| --- | --- |
| ACAAATAGGAACTGTGCCCC | 1.51 z-score |
| AAAAAAAGGAACTGTGCCCC | 4.28 z-score |
| GTATTCAGGAACTACTGTGC | 2.13 z-score |
| GAAAAGAGGAAGTGAAGTTA | 8.28 z-score |
| ATAAAAGGGAAGTGGGGCAT | 5.38 z-score |
| AAAAGGAGGAAGTTGGTTGG | 7.62 z-score |
| AAAAAAACGAACTGGCTAGA | -0.129 z-score |
| TTTGGGAGGAAGTGAAACCA | 3.56 z-score |
| TAGGAGGGGAAGTGGGACCC | 3.32 z-score |
| GATAAGAGGAACTCTGCAGG | 3.27 z-score |
| GGGTTGGGGAAGTGGGGGTA | 2.88 z-score |
| TGAAGGAGGAAGTGAGTGGG | 5.14 z-score |
| TTAAAGGGGAAGTGTCATGT | 5.67 z-score |
| CAAAGAAGGAAGTCCCAAGG | 3.14 z-score |
| TACATGAGGAAGTGCCTGAG | 5.04 z-score |
| AAAAAGGGGAAGTTGGGGAT | 8.45 z-score |
| AGGAGGAGGAAGTGGATGGG | 4.63 z-score |
| TAAAACAGGAAGTGGTGTTC | 7.81 z-score |
| ACGATGAGGAACTGGCAGTA | 2.98 z-score |
| GAAAACAGGAAGTTCCATAG | 7.66 z-score |

biological target: PU.1 (endogenous, THP-1 nuclear extract) (UniProt P17947); assay: nuclear extract protein-binding microarray (nextPBM); settings: 20 mM HEPES pH 7.9, 100 mM NaCl, 1 mM DTT, 0.2 mg/mL BSA, 0.02% Triton X-100, 2% milk, 0.4 mg/mL salmon testes DNA; 1 h; temperature not stated; high values mean tight binding; double strand, one strand shown; sequences stand for … in GCCTAGCAC…GTGCTAGGTCTTGATTCGCTTGACGCTGCTG

| Sequence | binding signal |
| --- | --- |
| AAATAGAGGAAATGCTTCAC | 4.07 z-score |
| AGCAACAGGAAGTGCACGAC | 4.21 z-score |
| GGAAAGAGGAAGTGTATGGT | 7.28 z-score |
| GGGATGAGGAAGTCAACTTT | 5.95 z-score |
| CCTTAGGGGAAGTGTGAAGT | 3.48 z-score |
| TGAAAGAGGAACTCAGTCAT | 5.89 z-score |
| CAAGAGGGGAAGTGCCTTGC | 4.59 z-score |
| CCACAGAGGAAATGAGTTCT | 1.16 z-score |
| CGATAGGGGAAGTGCTAAAC | 5.38 z-score |
| GATAAGAGGATGTCCTCTGT | 1.16 z-score |
| TAAATGAGGAAATGACCACG | 4.81 z-score |
| TAAGGAGGGAAGTGAGACTG | 2.59 z-score |
| GTGCAAAGGAAGTGCCCACA | 1.18 z-score |
| CAAAAGCAGAAGTGGCCAGG | 6.36 z-score |
| GGTGTGGGGAAGTACTGTGT | 3.02 z-score |
| GATAAAAGGAAGTCCTCTGT | 3.11 z-score |
| AGAAAGAGGAAGTCGAGGTG | 7.26 z-score |
| GAGGAGGGGAACTGAGAGCA | 1.44 z-score |
| TGAAAGGGGAAGTGGGTGCC | 6.85 z-score |
| GACAGGAGGAAGTGGAACTC | 4.85 z-score |

| Sequence | binding signal |
| --- | --- |
| ACAAATAGGAACTGTGCCCC | 1.61 z-score |
| AAAAAAAGGAACTGTGCCCC | 4.24 z-score |
| GTATTCAGGAACTACTGTGC | 2.47 z-score |
| GAAAAGAGGAAGTGAAGTTA | 7.39 z-score |
| ATAAAAGGGAAGTGGGGCAT | 6.26 z-score |
| AAAAGGAGGAAGTTGGTTGG | 7.22 z-score |
| AAAAAAACGAACTGGCTAGA | 0.0306 z-score |
| TTTGGGAGGAAGTGAAACCA | 6.2 z-score |
| TAGGAGGGGAAGTGGGACCC | 3.25 z-score |
| GATAAGAGGAACTCTGCAGG | 3.48 z-score |
| GGGTTGGGGAAGTGGGGGTA | 2.93 z-score |
| TGAAGGAGGAAGTGAGTGGG | 5.85 z-score |
| TTAAAGGGGAAGTGTCATGT | 6.26 z-score |
| CAAAGAAGGAAGTCCCAAGG | 3.88 z-score |
| TACATGAGGAAGTGCCTGAG | 5.2 z-score |
| AAAAAGGGGAAGTTGGGGAT | 7.45 z-score |
| AGGAGGAGGAAGTGGATGGG | 4.68 z-score |
| TAAAACAGGAAGTGGTGTTC | 7.33 z-score |
| ACGATGAGGAACTGGCAGTA | 2.86 z-score |
| GAAAACAGGAAGTTCCATAG | 7.3 z-score |

biological target: T1, FLI1 (endogenous, THP-1 nuclear extract) (UniProt Q01543); assay: as above; settings: 20 mM HEPES pH 7.9, 100 mM NaCl, 1 mM DTT, 0.2 mg/mL BSA, 0.02% Triton X-100, 2% milk, 0.4 mg/mL salmon testes DNA; 1 h; temperature not stated; high values mean tight binding; double strand, one strand shown; sequences stand for … in GCCTAGCAC…GTGCTAGGTCTTGATTCGCTTGACGCTGCTG
T1 sequence: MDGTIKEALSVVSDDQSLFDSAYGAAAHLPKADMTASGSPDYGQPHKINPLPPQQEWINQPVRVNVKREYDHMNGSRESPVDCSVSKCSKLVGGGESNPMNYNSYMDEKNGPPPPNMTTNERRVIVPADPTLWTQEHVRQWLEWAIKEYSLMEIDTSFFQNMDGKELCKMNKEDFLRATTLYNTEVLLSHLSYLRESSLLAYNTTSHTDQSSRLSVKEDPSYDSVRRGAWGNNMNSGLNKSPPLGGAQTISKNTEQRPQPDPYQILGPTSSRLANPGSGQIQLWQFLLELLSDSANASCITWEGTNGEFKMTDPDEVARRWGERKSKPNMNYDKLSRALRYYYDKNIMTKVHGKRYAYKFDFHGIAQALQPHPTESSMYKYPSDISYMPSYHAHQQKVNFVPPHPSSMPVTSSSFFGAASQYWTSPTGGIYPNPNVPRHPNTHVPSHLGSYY

| Sequence | binding signal |
| --- | --- |
| AAATAGAGGAAATGCTTCAC | 2.35 z-score |
| AGCAACAGGAAGTGCACGAC | 4.86 z-score |
| GGAAAGAGGAAGTGTATGGT | 3.68 z-score |
| GGGATGAGGAAGTCAACTTT | 2.22 z-score |
| CCTTAGGGGAAGTGTGAAGT | 1.71 z-score |
| TGAAAGAGGAACTCAGTCAT | 1.68 z-score |
| CAAGAGGGGAAGTGCCTTGC | 2.08 z-score |
| CCACAGAGGAAATGAGTTCT | 2.6 z-score |
| CGATAGGGGAAGTGCTAAAC | 2.16 z-score |
| GATAAGAGGATGTCCTCTGT | 1.17 z-score |
| TAAATGAGGAAATGACCACG | 2.14 z-score |
| TAAGGAGGGAAGTGAGACTG | 1.2 z-score |
| GTGCAAAGGAAGTGCCCACA | 2.12 z-score |
| CAAAAGCAGAAGTGGCCAGG | 1.6 z-score |
| GGTGTGGGGAAGTACTGTGT | 1.42 z-score |
| GATAAAAGGAAGTCCTCTGT | 1.92 z-score |
| AGAAAGAGGAAGTCGAGGTG | 4.03 z-score |
| GAGGAGGGGAACTGAGAGCA | 0.249 z-score |
| TGAAAGGGGAAGTGGGTGCC | 3.24 z-score |
| GACAGGAGGAAGTGGAACTC | 2.88 z-score |

| Sequence | binding signal |
| --- | --- |
| ACAAATAGGAACTGTGCCCC | 0.477 z-score |
| AAAAAAAGGAACTGTGCCCC | 1.25 z-score |
| GTATTCAGGAACTACTGTGC | 1.22 z-score |
| GAAAAGAGGAAGTGAAGTTA | 4.42 z-score |
| ATAAAAGGGAAGTGGGGCAT | 2.4 z-score |
| AAAAGGAGGAAGTTGGTTGG | 4.01 z-score |
| AAAAAAACGAACTGGCTAGA | -0.521 z-score |
| TTTGGGAGGAAGTGAAACCA | 3.51 z-score |
| TAGGAGGGGAAGTGGGACCC | 1.79 z-score |
| GATAAGAGGAACTCTGCAGG | 1.13 z-score |
| GGGTTGGGGAAGTGGGGGTA | 1.04 z-score |
| TGAAGGAGGAAGTGAGTGGG | 2.99 z-score |
| TTAAAGGGGAAGTGTCATGT | 2.58 z-score |
| CAAAGAAGGAAGTCCCAAGG | 1.67 z-score |
| TACATGAGGAAGTGCCTGAG | 2.34 z-score |
| AAAAAGGGGAAGTTGGGGAT | 3.68 z-score |
| AGGAGGAGGAAGTGGATGGG | 2.92 z-score |
| TAAAACAGGAAGTGGTGTTC | 5.45 z-score |
| ACGATGAGGAACTGGCAGTA | 0.776 z-score |
| GAAAACAGGAAGTTCCATAG | 5.09 z-score |
